# Laboratory results as given in the supplement of paper PMC8728848.
# Some of the results follow.
# B1: Cohesin-hMARCO (Homo sapiens) (protein)
# chain: LDDLDAVRIKVDTVNAKPGDTVRIPVRFSGIPSKGIANCDFVYSYDPNVLEIIEIEPGDIIVDPNPDKSFDTAVYPDRKIIVFLFAEDSGTGAYAITKDGVFATIVAKVKEGAPNGLSVIKFVEVGGFANNDLVEQKTQFFDGGANVGDTTEPATPTTPVTTPTTTDDLDAASVRIVGSSNRGRAEVYYSGTWGTICDDEWQNSDAIVFCRMLGYSKGRALYKVGAGTGQIWLDNVQCRGTESTLWSCTKNSWGHHDCSHEEDAGVECSVHHHHHH
# Tests used:
# Assay in all cases: glycan array binding signal (z-score within array); higher = stronger binding
# Details in all cases: glycan notation: IUPAC condensed, linker removed
# [1] = target: Neu5Ac(a2-3)Gal(b1-4)GlcNAc(b1-6)GalNAc
# How it was run: (§1)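 Glycan array binding is given as a within-array Z-score, which can be read as non-binding when negative. The arrays, 3228 of them, came from the Consortium for Functional Glycomics database and were retained only where the protein sequence was available. Z-scores were averaged across arrays of the same protein sequence at different concentrations or buffers and across linkers.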
# [2] = target: Neu5Ac(a2-3)Gal(b1-4)GlcNAc(b1-6)[Gal(b1-3)]GalNAc
# How it was run: as §1
# [3] = target: Neu5Ac(a2-3)Gal(b1-4)GlcNAc(b1-6)[Neu5Ac(a2-3)Gal(b1-3)]GalNAc
# How it was run: as §1
# [4] = target: Neu5Ac(a2-3)Gal(b1-4)GlcNAc6S
# How it was run: as §1
# [5] = target: Neu5Ac(a2-3)Gal(b1-4)[Fuc(a1-3)]GlcNAc
# How it was run: as §1
# [6] = target: Neu5Ac(a2-3)Gal(b1-4)[Fuc(a1-3)]GlcNAc(b1-2)Man
# How it was run: as §1
# [7] = target: Neu5Ac(a2-3)Gal(b1-4)[Fuc(a1-3)]GlcNAc(b1-3)Gal
# How it was run: as §1
# [8] = target: Neu5Ac(a2-3)Gal(b1-4)[Fuc(a1-3)]GlcNAc(b1-3)Gal(b1-4)GlcNAc
# How it was run: as §1
# [9] = target: Neu5Ac(a2-3)Gal(b1-4)[Fuc(a1-3)]GlcNAc(b1-3)Gal(b1-4)[Fuc(a1-3)]GlcNAc(b1-3)Gal(b1-4)[Fuc(a1-3)]GlcNAc
# How it was run: as §1
# [10] = target: Neu5Ac(a2-3)Gal(b1-4)[Fuc(a1-3)]GlcNAc(b1-3)GalNAc
# How it was run: as §1
# [11] = target: Neu5Ac(a2-3)Gal(b1-4)[Fuc(a1-3)]GlcNAc(b1-6)[Gal(b1-3)]GalNAc
# How it was run: as §1
# [12] = target: Neu5Ac(a2-3)Gal(b1-4)[Fuc(a1-3)]GlcNAc(b1-6)[Neu5Ac(a2-3)Gal(b1-3)]GalNAc
# How it was run: as §1
# [13] = target: Neu5Ac(a2-3)Gal(b1-4)[Fuc(a1-3)]GlcNAc6S
# How it was run: as §1
# [14] = target: Neu5Ac(a2-3)Gal6S(b1-4)GlcNAc
# How it was run: as §1
# [15] = target: Neu5Ac(a2-3)Gal6S(b1-4)[Fuc(a1-3)]GlcNAc
# How it was run: as §1
# Neu5Ac(a2-3)GalNAc = target: Neu5Ac(a2-3)GalNAc
# How it was run: as §1
# [16] = target: Neu5Ac(a2-3)GalNAc(b1-4)GlcNAc
# How it was run: as §1
# [17] = target: Neu5Ac(a2-3)[GalNAc(b1-4)]Gal(b1-4)Glc
# How it was run: as §1
# [18] = target: Neu5Ac(a2-3)[GalNAc(b1-4)]Gal(b1-4)GlcNAc
# How it was run: as §1
# [19] = target: Neu5Ac(a2-3)[GalNAc(b1-4)]Gal(b1-4)GlcNAc(b1-3)GalNAc
# How it was run: as §1
# [20] = target: Neu5Ac(a2-3)[Neu5Ac(a2-6)]GalNAc
# How it was run: as §1
# Neu5Ac(a2-6)Gal = target: Neu5Ac(a2-6)Gal
# How it was run: as §1
# [21] = target: Neu5Ac(a2-6)Gal(b1-3)GlcNAc(b1-3)[Gal(b1-4)GlcNAc(b1-6)]Gal(b1-4)Glc
# How it was run: as §1
# Neu5Ac(a2-6)Gal(b1-4)Glc = target: Neu5Ac(a2-6)Gal(b1-4)Glc
# How it was run: as §1
# [22] = target: Neu5Ac(a2-6)Gal(b1-4)GlcNAc
# How it was run: as §1
# [23] = target: Neu5Ac(a2-6)Gal(b1-4)GlcNAc(b1-2)Man
# How it was run: as §1
# [24] = target: Neu5Ac(a2-6)Gal(b1-4)GlcNAc(b1-2)Man(a1-3)Man(b1-4)GlcNAc(b1-4)GlcNAc
# How it was run: as §1
# [25] = target: Neu5Ac(a2-6)Gal(b1-4)GlcNAc(b1-2)Man(a1-3)[Gal(b1-4)GlcNAc(b1-2)Man(a1-6)]Man(b1-4)GlcNAc(b1-4)GlcNAc
# How it was run: as §1
# [26] = target: Neu5Ac(a2-6)Gal(b1-4)GlcNAc(b1-2)Man(a1-3)[GlcNAc(b1-2)Man(a1-6)]Man(b1-4)GlcNAc(b1-4)GlcNAc
# How it was run: as §1
# [27] = target: Neu5Ac(a2-6)Gal(b1-4)GlcNAc(b1-2)Man(a1-3)[GlcNAc(b1-4)][Neu5Ac(a2-6)Gal(b1-4)GlcNAc(b1-2)Man(a1-6)]Man(b1-4)GlcNAc(b1-4)GlcNAc
# How it was run: as §1
# [28] = target: Neu5Ac(a2-6)Gal(b1-4)GlcNAc(b1-2)Man(a1-3)[Man(a1-6)]Man(b1-4)GlcNAc(b1-4)GlcNAc
# How it was run: as §1
binder,measurement,setting,value
B1,glycan array binding signal (z-score),[1],0.969
same,glycan array binding signal (z-score),[2],-0.481
same,glycan array binding signal (z-score),[3],-0.569
same,glycan array binding signal (z-score),[4],-0.305
same,glycan array binding signal (z-score),[5],-0.198
same,glycan array binding signal (z-score),[6],2.21
same,glycan array binding signal (z-score),[7],-0.287
same,glycan array binding signal (z-score),[8],-0.532
same,glycan array binding signal (z-score),[9],-0.404
same,glycan array binding signal (z-score),[10],-0.191
same,glycan array binding signal (z-score),[11],-0.185
same,glycan array binding signal (z-score),[12],-0.409
same,glycan array binding signal (z-score),[13],0.051
same,glycan array binding signal (z-score),[14],-0.346
same,glycan array binding signal (z-score),[15],-0.41
same,glycan array binding signal (z-score),Neu5Ac(a2-3)GalNAc,-0.477
same,glycan array binding signal (z-score),[16],-0.484
same,glycan array binding signal (z-score),[17],-0.018
same,glycan array binding signal (z-score),[18],-0.359
same,glycan array binding signal (z-score),[19],0.154
same,glycan array binding signal (z-score),[20],-0.335
same,glycan array binding signal (z-score),Neu5Ac(a2-6)Gal,-0.407
same,glycan array binding signal (z-score),[21],-0.4
same,glycan array binding signal (z-score),Neu5Ac(a2-6)Gal(b1-4)Glc,-0.411
same,glycan array binding signal (z-score),[22],0.003
same,glycan array binding signal (z-score),[23],-0.526
same,glycan array binding signal (z-score),[24],-0.523
same,glycan array binding signal (z-score),[25],-0.418
same,glycan array binding signal (z-score),[26],-0.492
same,glycan array binding signal (z-score),[27],-0.514
same,glycan array binding signal (z-score),[28],-0.559
